Source: patent US20250333445A1 (ONCOPEPTIDES INNOVATION 1, published 2025)
Positions count from the first letter of the chain named.

B1: H_aBCMA-1-E6_15 aa_aCD16-A10(2a-C09)_His6c_OH (designed binder)
chain: VDNKFNKENQFADEEIAALPNLNFYQKWAFIRKLMDDPSQSANLLAEAKKLNDAQAPKGGGSGGGGSGGGGSGVDNKFNKEVQIAQREIRSLPNLNHHQVFAFIKKLLDDPSQSANLLAEAKKLNDAQAPK
B2: H_aBCMA-1-E6_15 aa_aCD16-A10(2a-G03)_His6c_OH (designed binder)
chain: B1 chain with V82T, I84V, R87K, S91T, V100I, I104L, K105N, L108I
B3: H_aBCMA-1-E6_15 aa_aCD16-A10(2b-E03)_His6c_OH (designed binder)
chain: B1 chain with V82L, I84S, S91Q, V100K, K105N, K106S
B4: H_aBCMA-1-E6_15 aa_aCD16-A10(34a-F03)_His6c_OH (designed binder)
chain: B1 chain with R87L, S91R, V100K, F101Y, K106S, L108A
B5: H_aBCMA-1-E6_15 aa_aCD16-A10(2a-H10)_His6c_OH (designed binder)
chain: VDNKFNKENQFADEEIAALPNLNFYQKWAFIRKLMDDPSQSANLLAEAKKLNDAQAPKGGGSGGGGSGGGGSGVDNKFNKELQSAQKEIRALPNLNHHQRFAFINSLLDDPSQSANLLAEAKKLNDAQAPKYYHHHHHH
B6: 1-E6-(GGGSG)3-A10*-YY-His6 with A10* = SEQ ID 13 (designed binder)
chain: B5 chain with S84T, K87L, A91T, R100I, N105A, S106K, L108R
B7: 1-E6-(GGGSG)3-A10*-YY-His6 with A10* = SEQ ID 14 (designed binder)
chain: B5 chain with L82F, S84L, K87R, A91E, R100Q, N105H, S106K
B8: 1-E6-(GGGSG)3-A10*-YY-His6 with A10* = SEQ ID 18 (designed binder)
chain: B5 chain with L82I, S84V, K87S, R100I, N105K, S106K
B9: 1-E6-(GGGSG)3-A10*-YY-His6 with A10* = SEQ ID 20 (designed binder)
chain: B5 chain with L82R, S84Y, Q86V, K87N, A91Q, R100I, N105K
B10: 1-E6-(GGGSG)3-A10*-YY-His6 with A10* = SEQ ID 22 (designed binder)
chain: B5 chain with L82I, K87V, R100K
B11: 1-E6-(GGGSG)3-A10*-YY-His6 with A10* = SEQ ID 23 (designed binder)
chain: B5 chain with S84H, K87I, A91K, R100K, S106K, L108H
B12: 1-E6-(GGGSG)3-A10*-YY-His6 with A10* = SEQ ID 24 (designed binder)
chain: B5 chain with L82V, S84F, K87R, A91K, R100Q, N105H
B13: 1-E6-(GGGSG)3-A10*-YY-His6 with A10* = SEQ ID 27 (designed binder)
chain: B5 chain with S84H, K87R, A91Q, R100V, N105A, L108I
B14: 1-E6-(GGGSG)3-A10*-YY-His6 with A10* = SEQ ID 28 (designed binder)
chain: B5 chain with L82I, S84D, A91T, R100K, N105Q, L108I
B15: 1-E6-(GGGSG)3-A10*-YY-His6 with A10* = SEQ ID 29 (designed binder)
chain: B5 chain with S84A, A91T, R100V, S106K, L108I
B16: 1-E6-(GGGSG)3-A10*-YY-His6 with A10* = SEQ ID 30 (designed binder)
chain: B5 chain with L82K, S84R, K87W, A91Q, R100K, N105Q, L108I
B17: 1-E6-(GGGSG)3-A10*-YY-His6 with A10* = SEQ ID 31 (designed binder)
chain: B5 chain with L82R, S84Q, Q86A, K87Y, A91H, R100V, N105K, S106K
B18: 1-E6-(GGGSG)3-A10*-YY-His6 with A10* = SEQ ID 32 (designed binder)
chain: B5 chain with L82K, S84A, K87R, R100I, N105H, S106K
B19: 1-E6-(GGGSG)3-A10*-YY-His6 with A10* = SEQ ID 34 (designed binder)
chain: B5 chain with L82Y, S84I, K87W, A91R, R100K, N105A
B20: 1-E6-(GGGSG)3-A10*-YY-His6 with A10* = SEQ ID 35 (designed binder)
chain: B5 chain with S84N, K87R, R100Q, N105H, S106K, L108I
B21: 1-E6-(GGGSG)3-A10*-YY-His6 with A10* = SEQ ID 36 (designed binder)
chain: B5 chain with L82D, S84R, K87R, R100K, S106K
B22: 1-E6-(GGGSG)3-A10*-YY-His6 with A10* = SEQ ID 37 (designed binder)
chain: B5 chain with L82T, S84I, Q86A, K87Q, A91H, N105K
B23: 1-E6-(GGGSG)3-A10*-YY-His6 with A10* = SEQ ID 48 (designed binder)
chain: B5 chain with L82Q, S84Y, K87I, A91Q, R100K, N105K, L108I
B24: 1-E6-(GGGSG)3-A10*-YY-His6 with A10* = SEQ ID 55 (designed binder)
chain: B5 chain with S84K, K87Q, A91H, R100T, N105K, S106K
B25: 1-E6-(GGGSG)3-A10*-YY-His6 with A10* = SEQ ID 56 (designed binder)
chain: B5 chain with L82H, S84V, K87R, R100K, N105Q, L108I
B26: 1-E6-(GGGSG)3-A10*-YY-His6 with A10* = SEQ ID 60 (designed binder)
chain: B5 chain with L82V, S84H, R100A, N105A, S106K
B27: H_aBCMA-1-E6_15 aa_aCD16-A10(2a-A06)_His6c_OH (designed binder)
chain: B5 chain with K87W, P93T, R100K, N105E, L108R
B28: H_aBCMA-1-E6_15 aa_aCD16-A10(2a-F09)_His6c_OH (designed binder)
chain: B5 chain with L82V, S84Y, K87R, A91N, R100A, N105K, L108I
B29: H_aBCMA-1-E6_15 aa_aCD16-A10(2a-H04)_His6c_OH (designed binder)
chain: B5 chain with L82V, S84W, A91S, R100V, N105R
B30: 1-E6-(GGGSG)3-A10*-YY-His6 with A10* = SEQ ID 26 (designed binder)
chain: B5 chain with L82V, S84I, A91E, R100K, N105K

Assays:
[1] = target: T1, hCD16a F158 (Cat. no. CDA-H5220, Acro Biosystems) (human, UniProt P08637 17-208); test: SPR, 1-E6-(GGGSG)3-A10*-YY-His6 fusion over immobilised receptor [c]
T1 construct: also called human CD16a F158; hCD16a F158 allotype

[2] = target: T2, hCD16a V158 (Cat. no. CD8-H52H4, Acro Biosystems) (human, UniProt P08637 17-208); test: as above
T2 construct: also called human CD16a V158; hCD16a V158 allotype

CD16b NA1 [3] = target: T3, CD16b NA1 (human, UniProt O75015); test: SPR, 1-E6-(GGGSG)3-A10*-YY-His6 fusion; CD16b set-up not described [c]
T3 construct: also called CD16b (NA1 form)

CD16b NA2 [4] = target: T4, CD16b NA2 (human, UniProt O75015); test: as above
T4 construct: also called CD16b (NA2 form)

[5] = target: T1, hCD16a F158 (Cat. no. CDA-H5220, Acro …); test: SPR (Biacore 8K), serial dilutions over immobilised hCD16a F158, 1:1 Langmuir model
CD16b NA1 [6] = target: T3, CD16b NA1; test: SPR, 1-E6-(GGGSG)3-A10*-YY-His6 fusion; CD16b set-up not described [f]
CD16b NA2 [7] = target: T4, CD16b NA2; test: as above
[8] = target: T1, hCD16a F158 (Cat. no. CDA-H5220, Acro …); test: SPR, 1-E6-(GGGSG)3-A10*-YY-His6 fusion over immobilised receptor [f]

Binder	Kd [1]	Kd [2]	Kd (CD16b NA1 [3])	Kd (CD16b NA2 [4])	Kd [5]	koff [1]	kon [1]	koff [5]	kon [5]	Kd (CD16b NA1 [6])	Kd (CD16b NA2 [7])	Kd [8]
B1	30 nM	31 nM	9 nM	59 nM	30 nM							
B2	95 nM	98 nM	26 nM	175 nM	95 nM	0.0057 s⁻¹	60000 M⁻¹ s⁻¹	0.0057 s⁻¹	60000 M⁻¹ s⁻¹			
B3			12 nM	85 nM								
B4										39 nM	224 nM	
B5	72 nM	73 nM	24 nM	145 nM	72 nM	0.0078 s⁻¹	110000 M⁻¹ s⁻¹	0.0078 s⁻¹	110000 M⁻¹ s⁻¹			
B6	282 nM	256 nM	195 nM	692 nM								
B7	297 nM	258 nM	114 nM	374 nM		23 s⁻¹	7.9e+07 M⁻¹ s⁻¹					
B8	149 nM	155 nM	65 nM	334 nM	149 nM	0.015 s⁻¹	99000 M⁻¹ s⁻¹	0.015 s⁻¹	99000 M⁻¹ s⁻¹			
B9	605 nM	502 nM	369 nM	676 nM		0.14 s⁻¹	240000 M⁻¹ s⁻¹					
B10	283 nM	256 nM	143 nM	362 nM		2.7 s⁻¹	9.4e+06 M⁻¹ s⁻¹					
B11			209 nM	1140 nM								
B12	124 nM	114 nM	41 nM	169 nM		0.019 s⁻¹	160000 M⁻¹ s⁻¹					
B13	532 nM	173 nM	66 nM	274 nM		18 s⁻¹	3.4e+07 M⁻¹ s⁻¹					
B14	124 nM	148 nM	48 nM	238 nM		0.019 s⁻¹	160000 M⁻¹ s⁻¹					
B15	66 nM	67 nM	19 nM	135 nM	66 nM	0.0057 s⁻¹	86000 M⁻¹ s⁻¹	0.0057 s⁻¹	86000 M⁻¹ s⁻¹			
B16		79 nM	102 nM	176 nM								
B17	182 nM		160 nM	270 nM								
B18		129 nM	59 nM	193 nM								
B19	260 nM	228 nM	760 nM	561 nM		0.01 s⁻¹	38000 M⁻¹ s⁻¹					
B20	153 nM	133 nM	71 nM	141 nM		16 s⁻¹	1.1e+08 M⁻¹ s⁻¹					
B21	179 nM	163 nM	37 nM	253 nM		0.11 s⁻¹	620000 M⁻¹ s⁻¹					
B22	458 nM	370 nM	427 nM	454 nM								
B23										96 nM	360 nM	227 nM
B24										39 nM	142 nM	
B25										45 nM	257 nM	186 nM
B26										91 nM	296 nM	262 nM
B27	125 nM	123 nM	79 nM	315 nM	125 nM	0.01 s⁻¹	83000 M⁻¹ s⁻¹	0.01 s⁻¹	83000 M⁻¹ s⁻¹			
B28			51 nM	286 nM								
B29			24 nM	96 nM								
B30	283 nM	127 nM	107 nM	163 nM		2.7 s⁻¹	9.4e+06 M⁻¹ s⁻¹					
